The other results are listed elsewhere or left out. Repeats are few or missing, and single values can be far off.
The compounds below were run on SkMel30 (assay: cell count relative to DMSO control; melanoma cells; higher = more viable cells). Conditions: library dose: standard library concentration; 72 h.
With `C[As](C)SC[C@H](NC(=O)CC[C@H](N)C(=O)O)C(=O)NCC(=O)O` [Darinaparsin] + COc1cc2ncnc(Nc3ccc(Oc4ccccc4)cc3)c2cc1OC [SrcI1] (first compound 2 µM, partner dose 10 µM) the cell count was 82.9%. `N.N.[Cl][Pt][Cl]` [cisplatin] + C=CCNC1=C2C[C@@H](C)C[C@H](OC)[C@H](O)[C@@H](C)/C=C(\C)[C@H](OC(N)=O)[C@@H](OC)/C=C\C=C(/C)C(=O)NC(=CC1=O)C2=O [Tanespimycin] (first compound 8 µM, partner dose 0.01 µM) gave a cell count of 111%. With `C[C@]12O[C@H](C[C@]1(O)CO)n1c3ccccc3c3c4c(c5c6ccccc6n2c5c31)CNC4=O` [Lestaurtinib] + Cn1c(Nc2ccc(C(F)(F)F)cc2)nc2cc(Oc3ccnc(-c4ncc(C(F)(F)F)[nH]4)c3)ccc21 [CHIR265] (first compound 0.02 µM, partner dose 0.4 µM) the cell count was 68.6%.

Each compound was assayed on SkMel5 in the same assay as above. Conditions: library dose: standard library concentration; 72 h.
`C[C@]12O[C@H](C[C@]1(O)CO)n1c3ccccc3c3c4c(c5c6ccccc6n2c5c31)CNC4=O` [Lestaurtinib] + O=C(Nc1cccc(Cl)c1)Nc1ncc(CCNc2ncnc3ccsc23)s1 [SNS314] (first compound 0.02 µM, partner dose 0.004 µM) showed a cell count of 52%. `N.N.[Cl][Pt][Cl]` [cisplatin] + CO[C@H]1C[C@@H]2CC[C@@H](C)[C@@](O)(O2)C(=O)C(=O)N2CCCC[C@H]2C(=O)O[C@H]([C@H](C)C[C@@H]2CC[C@@H](OCCO)[C@H](OC)C2)CC(=O)[C@H](C)/C=C(\C)[C@@H](O)[C@@H](OC)C(=O)[C@H](C)C[C@H](C)/C=C/C=C/C=C/1C [everolimus] (first compound 8 µM, partner dose 0.1 µM) showed a cell count of 51.4%. Compound `C[C@]12O[C@H](C[C@]1(O)CO)n1c3ccccc3c3c4c(c5c6ccccc6n2c5c31)CNC4=O` [Lestaurtinib] + NC(=O)Nc1cc(-c2cccc(F)c2)sc1C(=O)N[C@H]1CCCNC1 [AZD7762] (first compound 0.02 µM, partner dose 0.1 µM) has a cell count of 71.9%. Work on `C[As](C)SC[C@H](NC(=O)CC[C@H](N)C(=O)O)C(=O)NCC(=O)O` [Darinaparsin] + Oc1nc(-c2ccc(C(F)(F)F)cc2)nc2c1CSCC2 [XAV939] (first compound 2 µM, partner dose 10 µM) yielded a cell count of 65.5%. `C[As](C)SC[C@H](NC(=O)CC[C@H](N)C(=O)O)C(=O)NCC(=O)O` [Darinaparsin] + COc1ccc2c(c1)CCC1C2CCC2(C)C(NCCCCCCN3C(=O)C=CC3=O)CCC12 [U73122] (first compound 2 µM, partner dose 2 µM) was tested, and the cell count was 73.6%. `C[C@]12O[C@H](C[C@]1(O)CO)n1c3ccccc3c3c4c(c5c6ccccc6n2c5c31)CNC4=O` [Lestaurtinib] + O=C(O)c1ccc(-c2c[nH]c3ncc(-c4ccccc4)cc23)cc1C1CCCC1 [GSK650394] (first compound 0.02 µM, partner dose 0.8 µM) gave a cell count of 52.6%. Compound `Cn1cc(C2=C(c3cn(C4CCN(Cc5ccccn5)CC4)c4ccccc34)C(=O)NC2=O)c2ccccc21` [Enzastaurin] + C=C(c1ccc(C(=O)O)cc1)c1cc2c(cc1C)C(C)(C)CCC2(C)C [Bexarotene] (first compound 4 µM, partner dose 10 µM) has a cell count of 94.5%. `N.N.[Cl][Pt][Cl]` [cisplatin] + CO[C@@H]1[C@H](N(C)C(=O)c2ccccc2)C[C@H]2O[C@]1(C)n1c3ccccc3c3c4c(c5c6ccccc6n2c5c31)C(=O)NC4 [Midostaurin] (first compound 8 µM, partner dose 0.4 µM) was tested, and the cell count was 61%. `Cn1cc(C2=C(c3cn(C4CCN(Cc5ccccn5)CC4)c4ccccc34)C(=O)NC2=O)c2ccccc21` [Enzastaurin] + CNC(=O)c1cc(Oc2ccc(NC(=O)Nc3ccc(Cl)c(C(F)(F)F)c3)cc2)ccn1 [sorafenib] (first compound 4 µM, partner dose 2 µM) gave a cell count of 81.5%. With `Cn1cc(C2=C(c3cn(C4CCN(Cc5ccccn5)CC4)c4ccccc34)C(=O)NC2=O)c2ccccc21` [Enzastaurin] + CC(C)C[C@H](NC(=O)[C@H](Cc1ccccc1)NC(=O)c1cnccn1)B(O)O [Bortezomib] (first compound 4 µM, partner dose 0.005 µM) the cell count was 19%.

From the supplement of paper PMC4604168 (melanoma cell lines)
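Also: cells treated in 1,536-well plates, then fixed and DAPI-stained, with nuclei counted from automated high-throughput microscope images.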
